# The supplement of paper PMC12217912
# The other results are listed elsewhere or left out. The full chains were built here from the parent and the listed change. Values near 0.05 are background.
# B1: TEV protease; numbered along this chain (parent)
# chain: MGESLFKGPRDYNPISSSICHLTNESDGHTTSLYGIGFGPFIITNKHLFRRNNGTLVVQSLHGVFKVKDTTTLQQHLVDGRDMIIIRMPKDFPPFPQKLKFREPQREERICLVTTNFQTKSMSSMVSDTSCTFPSGDGIFWKHWIQTKDGQCGSPLVSTRDGFIVGIHSASNFTNTNNYFTSVPKNFMELLTNQEAQQWVSGWRLNADSVLWGGHKVFMVKPEEPFQPVKEATQL
# Variants of: B1
# Test: raw area under fraction-flipped curve 0-4 h after induction (AUC4h, not background-subtracted), DNA-recorder readout of cleavage of the substrate (dimensionless); higher = more cleavage of the substrate by the protease variant
# Details: temperature: 34 °C; time window: 0-4 h after rhamnose induction
# Method: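 In vivo DNA recorder in E. coli TOP10(DE3) ΔrhaA at 34 °C. Each TEVp single-site mutant (parent TEVp 0) is paired with a single-site variant of the 7-mer TEVs (canonical ENLYFQ|S). The substrate sits between flexible linkers in a Bxb1-sfGFP-TEVs-SsrA fusion, so cleavage stabilises Bxb1 and speeds flipping of a recombination array, read by NGS. The value is the raw area under the fraction-flipped curve over 0-4 h after rhamnose induction (AUC4h), with ≥20 reads per time point. It is not background-subtracted; inactive controls average about 0.047.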
# 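Also: Bxb1 expression induced with 0.2% (w/v) L-rhamnose at OD600 near 0.5, cultures sampled hourly, flipped fraction per protease–substrate barcode pair counted by paired-end Illumina sequencing.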
Variant,area with substrate ANLYFQS,area with substrate CNLYFQS,area with substrate DNLYFQS,area with substrate HNLYFQS,area with substrate INLYFQS,area with substrate KNLYFQS,area with substrate NNLYFQS,area with substrate PNLYFQS,area with substrate QNLYFQS,area with substrate RNLYFQS,area with substrate WNLYFQS,area with substrate YNLYFQS,area with substrate FNLYFQS,area with substrate GNLYFQS,area with substrate LNLYFQS,area with substrate MNLYFQS,area with substrate TNLYFQS,area with substrate SNLYFQS,area with substrate VNLYFQS
D27P,0.0694,0.0631,0.0736,0.0594,0.0091,0.0565,0.0654,0.0578,0.0621,0.0539,0.0548,0.0129,,,,,,,
I43K,0.0445,0.0512,0.057,0.0469,0.0449,0.0427,0.037,0.0529,0.0481,,0.0529,,0.0521,0.0481,0.0303,0.0553,0.0503,,
I43R,0.0672,0.0417,0.0344,0.0405,0.0459,0.0309,,0.0384,0.0772,,0.0515,0.0417,0.0474,0.0388,,,0.0459,0.0521,0.0401
L56W,0.0487,0.0566,0.0566,0.0518,0.063,0.0589,0.052,,,,0.0537,,0.0593,0.0667,0.0645,0.0616,0.0713,0.0556,0.0414
L56P,0.0472,0.0443,,0.0377,,0.0302,,0.0471,,,0.0606,,,0.0451,0.0545,0.0514,0.0389,0.0452,0.0427
L56S,0.0455,0.0394,,0.0483,0.0598,0.033,0.0307,0.062,,0.0257,0.0539,0.0368,0.0381,,0.0556,0.0391,0.0463,,
S32P,0.0469,0.0632,,0.0629,0.0558,0.0712,0.0639,0.0505,,,0.0584,0.0574,,,,0.0612,0.0586,0.0664,0.0459
S32Y,0.0493,0.0638,0.08,0.066,0.0625,0.0727,0.0708,0.0645,,,0.0635,0.0618,0.0527,0.0683,0.0595,0.0675,0.0531,0.0688,0.0536
S32E,0.0644,0.0616,0.0638,0.0669,0.0671,0.0666,,,0.0811,0.0561,0.061,0.0612,0.0553,,0.0515,0.057,0.0614,0.0714,0.0805
S32G,0.0794,0.0711,0.0751,0.0634,0.0708,0.0498,,0.0586,0.0693,,0.0639,,0.0762,,0.0727,0.0654,0.0643,0.0652,
S32L,0.0656,0.102,0.0789,0.0621,0.0606,,,,0.0662,0.0584,0.0636,0.061,0.0667,0.0834,0.0738,0.0644,0.0727,0.0638,0.0597
S32W,0.0675,0.0487,0.0847,0.0597,,0.0596,0.06,0.0716,,,0.0678,0.0559,,,0.0665,,0.0627,,0.0598
L33N,0.0559,0.066,0.0998,0.0611,0.0592,0.0636,0.0881,,0.0573,0.0605,0.0633,,,0.0612,0.0631,0.0545,0.0596,0.0734,0.0522
G54I,0.0571,0.0619,0.0617,0.049,0.0548,0.0572,,,,,0.0512,0.0523,,0.0614,0.052,,0.0583,0.0538,
G28T,0.0884,0.0564,0.0702,0.074,0.0857,0.0628,0.0686,0.0768,,,0.0581,0.0572,0.0586,,0.0562,,0.0703,0.0684,0.0515
G28L,0.0714,0.039,0.0662,0.0637,,0.0671,0.065,0.0614,,0.0533,0.0592,0.0611,,0.0914,0.051,,0.0669,0.0491,0.0627
N24Q,0.078,0.0626,,0.0367,,0.0823,0.0677,0.0663,0.0797,,0.0599,,,0.0454,0.0565,0.0349,0.078,0.0467,0.0622
N24R,0.0531,0.0646,0.0651,0.0562,0.0602,0.06,,0.0646,0.0517,,,0.0789,,0.0528,,0.0627,0.0609,,
N24W,0.0657,0.0433,0.0671,0.0605,0.0506,0.0521,0.0474,0.0666,,0.0535,0.0621,0.0523,0.0507,,0.0623,0.0534,0.0678,,
N24T,0.0615,0.0737,,0.0499,0.0661,,0.0621,0.0648,,,0.0606,0.0789,0.0323,0.0666,0.0662,,0.0653,0.0757,0.0641
N24H,0.0487,0.0811,0.0787,0.0648,0.0603,0.0553,0.0729,,,,0.0653,,0.0722,0.0676,,0.059,0.0589,0.0543,
P40T,0.0603,0.0521,0.0755,0.0617,0.063,0.067,0.0541,0.0652,,0.0695,0.0624,0.078,0.055,0.0677,0.0696,0.0635,0.0837,0.0679,0.0525
P40G,0.0704,0.0655,0.0968,0.0631,0.0674,0.0682,0.0819,0.0703,,,0.034,0.0677,0.0728,0.0855,0.0479,0.0342,,0.0712,
P40C,0.063,0.0746,,0.0752,0.09,0.067,,0.0654,,0.058,0.0607,0.0856,0.0663,,0.0631,0.0654,0.0611,,0.0608
P40R,0.0732,0.0539,0.126,0.0495,0.0825,0.0701,0.0686,0.0708,,,0.0672,0.0578,,0.0727,,0.0653,0.0533,0.0701,
